According to the supplement of paper PMC9334596:
“And” between values parts separate entries of the source, which are not always exact repeats. Equal values may be shown once. The full ranking holds about 5,300 compounds; the median of “PER2::LUC luminescence relative to vehicle control” is about 0.96, and the highest 2% start at about 1.3. The list shows a part of the results.

System: mPer2Luc MEF
Experiment: PER2::LUC luminescence relative to vehicle control (fold of vehicle); higher = higher PER2::LUC reporter signal
Conditions: 10 µM
In short: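 In 384-well plates, ~3000 mPer2Luc reporter mouse embryonic fibroblasts per well were cultured in DMEM with 10% FBS at 37 °C and 5% CO2 for 48 h before compounds from commercial libraries were added at 10 μM. ONE-Glo luciferase readings were taken 24 h and 30 h after treatment. Each value is PER2::LUC luminescence given as fold of vehicle control.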

Compound	PER2::LUC luminescence (time after treatment 24 h)	PER2::LUC luminescence (time after treatment 30 h)
O=C([C@@H](Cc1cccc(C(F)(F)F)c1)NS(=O)(=O)c1cc(F)c2c(c1)CCNC2)N1CCCC1	0.77	0.798
CC1(C)CO[C@@H](CC(=O)O)CN1	0.97	0.984
N=C(N)NC(=N)Nc1ccccc1	1.04	0.931
Nc1nc(Cl)nc2c1ncn2[C@H]1C[C@H](O)[C@@H](CO)O1	0.628 and 0.512	0.458 and 0.375
CN[C@@H]1[C@H](O[C@H]2[C@H](O[C@H]3[C@H](O)[C@@H](O)[C@H](N=C(N)N)[C@@H](O)[C@@H]3N=C(N)N)O[C@@H](C)[C@]2(O)C=O)O[C@@H](CO)[C@H](O)[C@H]1O	1.17	1.02
Cc1ccc2c(Br)cc(Br)c(OC(=O)c3ccccc3)c2n1	0.346	0.49
Cc1cccc(C(=O)O)c1O	1.05	1.03
O=C(C=Cc1ccccc1)NC(NC(=S)Nc1ccc(Cl)cc1)C(Cl)(Cl)Cl (stereo not given)	0.764	0.752
COc1cc(-c2coc3cc(OCc4ccccc4)c(OC)c(O)c3c2=O)cc(OCc2ccccc2)c1OC	0.972	0.937
OCCOCCN1CCN(C2=Nc3ccccc3Sc3ccccc32)CC1	1.02 and 0.943 and 0.96	0.895 and 0.94 and 0.887
Cc1cc(O)c(C)c(O)c1C(=O)O	0.96	0.947
COc1cc(-c2oc3cc(O)ccc3c(=O)c2O)ccc1O	1.13	1.2
O=C(Nc1cccc(C(F)(F)F)c1)Nc1cc(Cl)ccc1C(=O)O	1.07	1
Cc1nc(Nc2cnn(C3CCNCC3)c2)nc2c1N(C)C(=O)c1cc3ccccc3cc1N2C	0.398	0.47
C[C@H](NC(=O)CNC(=O)[C@@H](NC(=O)[C@H](Cc1ccccc1)NC(=O)CNC(=O)CNC(=O)[C@@H](N)Cc1ccccc1)[C@@H](C)O)C(=O)N[C@@H](CCCN=C(N)N)C(=O)N[C@@H](CCCCN)C(=O)N[C@@H](CO)C(=O)N[C@@H](C)C(=O)N[C@@H](CCCN=C(N)N)C(=O)N[C@@H](CCCCN)C(N)=O	1.02	0.922
CC1(C)S[C@@H]2[C@H](NC(=O)[C@H](N)c3ccc(O)cc3)C(=O)N2[C@H]1C(=O)O	1.13 and 0.881 and 1.16	0.997 and 0.986 and 1.12
Cn1cnc2c(NCc3ccccc3)nc(NCCO)nc21	1.18	1.08
Cc1cc(C(=O)NOCCO)c(Nc2ccc(I)cc2F)n(C)c1=O	0.337	0.248
O=C(c1c2ccccc2cc2ccccc12)N1CCC(N2CCC[C@@H](C(=O)N3CCOCC3)C2)CC1	0.752	0.65
COc1cccc2c1C(=O)c1c(O)c3c(c(O)c1C2=O)C[C@@](O)(C(=O)CO)C[C@@H]3O[C@H]1C[C@H](N)[C@H](O)[C@H](C)O1	1.26	1.18
NC1CCN(O)C1=O (single isomer, unassigned; (+))	0.99	0.883
CCC(=O)O[C@@H](O[P@](=O)(CCCCc1ccccc1)CC(=O)N1C[C@H](C2CCCCC2)C[C@H]1C(=O)O)C(C)C	0.617	0.741

Compound	PER2::LUC luminescence (time after treatment 24 h)	PER2::LUC luminescence (time after treatment 30 h)
O=c1cc(-c2ccc(O)cc2)oc2cc(O)c([C@@H]3O[C@H](CO)[C@@H](O)[C@H](O)[C@H]3O)c(O)c12	0.972	0.983
Cc1cc2c(cc1S(N)(=O)=O)S(=O)(=O)CCC2	0.927	1.05
CC1(C)CC[C@]2(C)CC[C@]3(C)C(=CC[C@@H]4[C@@]5(C)CC[C@H](O)C(C)(C)[C@@H]5CC[C@]43C)[C@@H]2C1	1.09	0.999
CN1CCc2cc(O)c(O)cc2C(c2ccccc2)C1 (stereo not given)	0.893	0.746
Clc1cnccn1	0.97	0.951
CC(C)OC(=O)[C@H](C)N[P@](=O)(OC[C@H]1O[C@@H](n2ccc(=O)[nH]c2=O)[C@](C)(F)[C@@H]1O)Oc1ccccc1	1.07	0.997
NCCNCCNCCNCCN	1.04	1
NC(=O)c1cc[n+](CC2=C(C(=O)O)N3C(=O)[C@@H](NC(=O)[C@@H](c4ccccc4)S(=O)(=O)[O-])[C@H]3SC2)cc1	1.01	1.01
CCCCCCCCCc1ccc(OCCOCCOCCOCCOCCOCCOCCOCCOCCO)cc1	0.756	0.762
CC(C)c1ccc2oc3nc(N)c(C(=O)O)cc3c(=O)c2c1	1.07	1.49
CC1(C)S[C@@H]2[C@H](NC(=O)[C@H](NC(=O)N3CCNC3=O)c3ccccc3)C(=O)N2[C@H]1C(=O)O	1.21	1.13
COC(=O)Nc1nc2cc(C(=O)c3ccccc3)ccc2[nH]1	0.577	0.605
COc1ccccc1-c1nc(-c2ccccn2)no1	0.948	0.943
C[C@@H]1O[C@@H](OC[C@H]2O[C@@H](Oc3cc(O)c4c(c3)O[C@H](c3ccc(O)cc3)CC4=O)[C@H](O)[C@@H](O)[C@@H]2O)[C@H](O)[C@H](O)[C@H]1O	0.957	0.972
O=C1[C@H](Cc2ccc(O)cc2)N2C(=O)CCN(C(=O)NCc3ccccc3)[C@H]2CN1Cc1cccc2ccccc12	0.412	0.574
CCCCCCc1ccc(O)cc1O.Nc1c2ccccc2nc2ccccc12	0.559	0.691
O=C(O)c1cccnc1Nc1cccc(C(F)(F)F)c1	1.07	1.15
Cc1oncc1C(=O)Nc1ccc(C(F)(F)F)cc1	1.35	1.82
COc1ccc(C(Cl)=C(c2ccc(OC)cc2)c2ccc(OC)cc2)cc1	1.03	1.06
CC1CC(OC(=O)C(O)c2ccccc2)CC(C)(C)C1 (stereo not given)	0.817	0.82
CCOC(=O)[C@H](CCc1ccccc1)N[C@@H](C)C(=O)N1Cc2ccccc2C[C@H]1C(=O)O	0.572	0.912
CC(CCc1ccccc1)NCC(O)c1ccc(O)c(C(N)=O)c1 (stereo not given)	0.395	0.828

Compound	PER2::LUC luminescence (time after treatment 24 h)	PER2::LUC luminescence (time after treatment 30 h)
O=C(O)c1cccc(O)c1O	0.949	0.904
Cc1cn([C@H]2O[C@@H](CO)[C@H](O)[C@H]2F)c(=O)[nH]c1=O	1.01	1.02
Cc1cn(C2C=CC(CO)O2)c(=O)[nH]c1=O (stereo not given)	1.15	1.07
Cc1cc(NC(=O)Nc2ccc(N(C)C)cc2)c2cc(F)cc(F)c2n1	0.814	0.87
Cc1onc(-c2c(Cl)cccc2Cl)c1C(=O)N[C@@H]1C(=O)N2[C@@H]1SC(C)(C)[C@@H]2C(=O)O	1.12	0.94
COc1cc2ncnc(N(C)c3cccc(Br)c3)c2cc1OC	0.83	0.741
C[C@@]1(F)[C@H](O)[C@@H](CO)O[C@H]1n1ccc(=O)[nH]c1=O	0.965	0.937
Cn1cc(-c2ccc3ncc(Cc4ccc5ncccc5c4)n3n2)cn1	1.08	1.04
Cc1cc(O)c(C=O)c2c1C(=O)Oc1c(C)c(O)c3c(c1O2)C(O)OC3=O (stereo not given)	0.973	1.02
CN1C(C)(C)CCCC1(C)C	0.952 and 0.86	0.875 and 0.798
CC[N+](C)(C)Cc1ccccc1Br	0.548	0.891
CCCCCCCCc1ccc(-c2ccc(C(=O)O)cc2)cc1	1.18	1.05
C[N+](C)(C)CCCCCC[N+](C)(C)C	1.08 and 0.915 and 1.01	0.904 and 1.05 and 0.777
CC1C(=O)OC2C(O)C34C5CC(C(C)(C)C)C36C(OC(=O)C6O)OC4(C(=O)O5)C12O (stereo not given)	1.08	0.89
O=c1ccc2ccc(OCCCCN3CCN(c4cccc5sccc45)CC3)cc2[nH]1	0.628	0.637
CC(C)Cc1sc(N)nc1-c1ccc(P(=O)(O)O)o1	1.07	0.954
CCCCCC[C@@H]([C@@H](C)O)n1cnc2c(N)ncnc21	1.24 and 0.841 and 0.788	0.793 and 0.805 and 0.851
CN(C)/N=N/c1[nH]cnc1C(N)=O	1.09 and 0.87	1.01 and 0.893
O=c1ccc2ccc(O)cc2o1	0.893	0.906
COc1ccc([C@@H]2CC(=O)c3c(O)cc(O[C@@H]4O[C@H](CO[C@@H]5O[C@@H](C)[C@H](O)[C@@H](O)[C@H]5O)[C@@H](O)[C@H](O)[C@H]4O)cc3O2)cc1O	0.987	0.871
COc1c2ccoc2c(OC)c2oc(=O)ccc12	1.01	1.03
CC(N)=NCCCC[C@H](N)C(=O)O	1.05	1.09

Compound	PER2::LUC luminescence (time after treatment 24 h)	PER2::LUC luminescence (time after treatment 30 h)
O=c1cc(N2CCOCC2)oc2c(-c3cccc4c3sc3ccccc34)cccc12	0.577 and 1.08	0.579 and 1.09
Nc1ncc2c(n1)CC(c1ccco1)CC2=O (stereo not given)	0.997	1.07
CC(C)(C(=O)O)c1ccc(C(O)CCCN2CCC(C(O)(c3ccccc3)c3ccccc3)CC2)cc1 (stereo not given)	1.07	1.03
CCCCc1nc(-c2ccc(OCCCN(CC)CC)cc2)cn1-c1ccc(Oc2ccc(Cl)cc2)cc1	0.213	0.268
Cc1cc(C(C)(C)C)c(O)c(C)c1CC1=NCCN1	1.01	0.903
NC(Cc1ccc(Cl)cc1)C(=O)O (stereo not given)	1.04 and 1.05	1.06 and 0.924
CN(C)CCCN1c2ccccc2Sc2ccccc21	0.652	0.651
O=C(O)COc1ccc(OCCNC[C@H](O)COc2ccccc2)cc1	0.9	1.02
C=CC(C1=CC(=O)C=CC1=O)c1ccccc1 (stereo not given)	1.07	1.03
O=C[C@H](O)[C@@H](O)[C@H](O)CO	0.961	0.908
O=C1OC2(c3ccccc31)c1cc(I)c(O)c(I)c1Oc1c2cc(I)c(O)c1I	1.04	0.836
O=C(/C=C/c1ccc2ccccc2n1)c1ccncc1	0.925	0.864
CC(=O)Nc1ccccc1	0.881	1.21
Cc1cc(C(N)=O)ccc1-n1c(CCC(=O)O)ccc1-c1ccc(-n2ccnc2)cc1	1	0.98
COC(=O)[C@H]1[C@H]2C[C@H]3c4[nH]c5ccccc5c4CCN3C[C@@H]2CC[C@@H]1O	0.975 and 0.889	0.934 and 0.896
COc1cc(O)c2c(c1)oc(=O)c1c3cc(O)c(O)cc3oc21	1.05	0.927
C[C@H]1COc2c(C3(N)CC3)c(F)cc3c(=O)c(C(=O)O)cn1c23	1.33 and 0.829	1.15 and 0.705
CC(C(=O)O)c1ccc2c(c1)Cc1cccnc1O2 (stereo not given)	0.944	0.933
CC(C)(C)C(=O)Oc1ccc(S(=O)(=O)Nc2ccccc2C(=O)NCC(=O)O)cc1	1.15	1
